Sequences with one replicate were seen in a single cluster, so their values are uncertain.
system: ATP; assay: switch fluorescence ratio, 500 uM ATP over buffer (Cy3 cluster intensity, sum of 5 cycles each) (fold (ratio)); higher = stronger signal-on switching upon ATP binding; sequences stand for … in TCGTCGGCAGCGTCAGATGTGTATAAGAGACAGTTTTTTTTTTTTTTTTTTTTTTTTT…TC; settings: aptamer strand: ATP DNA aptamer (quencher-CACCTGGGGGAGTATTGCGGAGGAAGG + anchor), 100 nM annealed; ATP concentration: 500 uM; one replicate
Outline: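 Switching-strand clusters labelled with Cy3 on a modified Illumina MiSeq flow-cell were annealed to 100 nM quencher-labelled ATP aptamer, imaged in selection buffer, and re-imaged after 15 min with 500 uM ATP at 22 °C. This was done over five cycles with NaOH stripping and re-annealing in between. The fluorescence ratio is summed target-cycle over summed buffer-cycle Cy3 intensity per cluster, averaged per switch-domain sequence, excluding clusters outside 100-1000 RFU.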
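Also: ATP exposure 15 min at 22 °C before imaging.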

Sequence	switch fluorescence ratio
ACTGTCCAGA	1.03
ACTGTCCGAT	1.03
ACTGTGATCG	0.986
ACTGTGGTTA	0.997
ACTGTTCGCG	1.03
ACTGTTTTAA	1.01
ACTTAACTAA	1.13
ACTTAATAAT	0.944
ACTTAATCCG	1.49
ACTTAATGA	1.01
ACTTACTATT	1.15
ACTTAGGT	1.04
ACTTAGGTAC	1.04
ACTTAGGTGA	1.07
ACTTATTCTC	1.01
ACTTATTTCG	1.03
ACTTCATGCA	1.04
ACTTCGATGA	1.05
ACTTCTCGTC	1.03
ACTTCTGTAG	1.45
ACTTGACTTA	1.13
ACTTGAGA	0.991
ACTTGAGGCT	0.971
ACTTGATCAT	1.02
ACTTGCGGTC	1.01
ACTTGCTGGA	1.01

Sequence	switch fluorescence ratio
ACTTGGCTTC	1.03
ACTTGGGAGA	0.961
ACTTGGGCA	1.01
ACTTGGTTGC	1.02
ACTTGTGTCG	1.02
ACTTGTTCTC	0.992
ACTTTACTAT	1.2
ACTTTAGTCC	1.03
ACTTTATCGG	0.989
ACTTTCATT	1.15
ACTTTCGGTG	1.01
ACTTTGAGTA	0.953
ACTTTGGAAA	0.995
ACTTTGGATT	0.992
ACTTTGTAG	1.05
ACTTTGTGTA	0.992
ACTTTTAGGG	1
ACTTTTCAGG	1.01
ACTTTTGGAA	1.02
ACTTTTGGTG	1.04
AGAAAAAAAA	1.01
AGAAAAGATT	1.02
AGAAAATGAG	0.958
AGAAACAAAT	0.972
AGAAACCTGG	1.31
AGAAAGGGAG	0.97

Sequence	switch fluorescence ratio
AGAAATAGTT	0.983
AGAAATGGGG	0.998
AGAACATCGA	0.975
AGAACCGGGG	0.99
AGAACCGTGC	1.36
AGAACGTGTA	0.95
AGAACGTTTT	1.06
AGAACTAGCA	0.993
AGAACTGAGC	1.07
AGAAGACGTG	0.945
AGAAGAGCAT	1
AGAAGAGCGG	0.951
AGAAGGCGGA	0.968
AGAAGGGTCT	0.997
AGAAGTAATT	1.01
AGAAGTAGAT	0.999
AGAAGTCTCT	0.989
AGAAGTGCAC	0.936
AGAAGTGTAG	1.08
AGAAGTTCAG	1
AGAAGTTCTG	1.07
AGAATAAACA	1.04
AGAATACCGG	0.969
AGAATATCC	1.03
AGAATATGCT	0.997
AGAATCGCAG	1

Sequence	switch fluorescence ratio
AGAATCTAGT	0.976
AGAATCTTAG	0.972
AGAATGTCAA	1.01
AGAATTACGT	1.04
AGAATTAGAC	0.99
AGAATTGAAT	0.983
AGAATTTTGA	1.02
AGACACCCCG	1.01
AGACACCTCA	1.03
AGACAGGCTT	1.05
AGACAGGTG	1.22
AGACAGTTAC	1.16
AGACATCTGT	0.993
AGACATGCCG	0.961
AGACATGTTA	1.01
AGACCAGAAT	0.984
AGACGTAAGC	1.09
AGACGTCCCG	1.07
AGACTAATAC	1.75
AGACTATTAT	1.06
AGACTCAGCC	1.14
AGACTCCTAA	1.05
AGACTCTTTC	1.08
